Source: paper PMC12136788
Some of the results follow.

T1: UNK ZnF1-3 (human, UniProt Q9C0B0 31-174)
T1 sequence: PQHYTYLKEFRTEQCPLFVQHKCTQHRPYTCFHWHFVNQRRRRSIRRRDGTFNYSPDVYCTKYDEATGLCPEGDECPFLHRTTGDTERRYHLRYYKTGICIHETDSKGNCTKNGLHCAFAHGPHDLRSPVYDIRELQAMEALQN

B1: 5366851_5366971_99_3pUTR_ENSMUSG00000024841_ENSMUST00000025759|mouse|control|control (ssRNA)
RNA: GGGAGUUCUACAGUCCGACGAUCAGAGGUCCUCCGGAUUUCCCGCCCCCUCUUCGUCCGUCCCUUUAACUCUUCCCUCCAUCAAGUGAGGCAAGCCUAAGUUCCGAGUGCGGGGCAGGAAAACGCAUUCUCCUCGGAGGUCUCCAACAGAGGAUUGAGCAUCA
B2: chr7:118215863:118215864:-_ENSMUSG00000005610_ENSMUST00000162415|mus_mus|FALSE|FALSE (ssRNA)
RNA: GGGAGUUCUACAGUCCGACGAUCUAUUGCAACAACUCAAGUAUUACUGAGCAAAGUGCAUCUCUACAGUAUUCAGUGUUGCUAUUCAGUUUUCUAACUUAAAACAGCCUAUGGUAACUGGCAGCAAAGAAGGUCCUUGCAAUACAACAGAGGAUUGAGCAUCA
B3: chr3:33710417:33710418:+_ENSMUSG00000027677_ENSMUST00000099153|mus_mus|motif|central (ssRNA)
RNA: GGGAGUUCUACAGUCCGACGAUCAGAAGUCACAGUUCUACUCAUGGAAAUUAAGACAAAGCUGUCCAGGGAACAUGCAAACGGUGGACAUAUUAAUGUAAAAGAAACUAAUGAUGACAGAACUGAGAAUCAAUUUAAAUUCUCCAACAGAGGAUUGAGCAUCA
B4: 138014305_138014425_2771_3pUTR_ENSMUSG00000046447_ENSMUST00000050918|mouse|control|control (ssRNA)
RNA: GGGAGUUCUACAGUCCGACGAUCUAAGAGGCAGCAGCUGAGUUCAUCGGUCUCUGCAGAUCAGGCAGGUGAUGUUUACAGAAGUUCCAGUUCCGAGAGUAAGGCAGUCAGAGCUAGAACCUGAACCCAAGUCCAGUCUCCCAGCAACAGAGGAUUGAGCAUCA
B5: chr12:32625335:32625336:-_ENSMUSG00000002996_ENSMUST00000172314|mus_hu|FALSE|FALSE (ssRNA)
RNA: GGGAGUUCUACAGUCCGACGAUCUGGGUAUUCUUGAUGUGAAACAUCUGAACUCAGCUGGUACAUGCCAGAUUGGGUAGGAUCACUUUGAACUGCCUGAAGUUCAGGAAGGUCAUCAAGCUCCAUGUGUUCAUCACAGGAGUUCAACAGAGGAUUGAGCAUCA
B6: chr3:176740097:176740098:-_ENSG00000177565_ENST00000430069|hu_mus|hu_hu_hu_mus_True|28_68 (ssRNA)
RNA: GGGAGUUCUACAGUCCGACGAUCUGUUUUGUAUACCACAAAAGGAGGCACUUUCAGUAUCUGCAAAAGGUAUUUAAUCCUAAAACAUACUCACCUAGAGGAUAACUAAAACAGAAUAUCUGUUACACUCUAAGACCUACUCCACAACAGAGGAUUGAGCAUCA
B7: chr10:13244450:13244451:-_ENSMUSG00000019809_ENSMUST00000019945|mus_hu|FALSE|FALSE (ssRNA)
RNA: GGGAGUUCUACAGUCCGACGAUCUUAUAUAUAUAUAUGUAUAUAAAAUAUCUAUAUUGAUUUUUAGUCAGUUUGGAACAAAUGUCCAUGUGUAACAAAUUAUUAACAAUUCUGAUAUUUGCACGUGUAUAUAUAUAUGCCCACCAACAGAGGAUUGAGCAUCA
B8: chr6:135286264:135286265:-_ENSG00000112339_ENST00000367826|hu_hu|motif|central (ssRNA)
RNA: GGGAGUUCUACAGUCCGACGAUCUUUGCCAGUUGGCAACUUAGAAUUUUUGCAGAGGUGAUUAUUAAUACUUCUUUGCAGCGGAUUUUAGCUUUAAUUUUUCUCUCUCAUCUAAAAACAUAUCAAUUGCACAUUGUUCCUUUGCAACAGAGGAUUGAGCAUCA
B9: chr5:135508174:135508175:+_ENSG00000113658_ENST00000545279|hu_mus|FALSE|FALSE (ssRNA)
RNA: GGGAGUUCUACAGUCCGACGAUCACUAGUAGAAGAUGCAUGAAAAGCUUCCCCAACACGAUUGUUUAAUUCAUAGUAGACAAUCGAACACCAGUGUUUGGGCUCCUCAUAGGCGACAGGCUGAACAUCUCUGCUGGAUAUGCUCAACAGAGGAUUGAGCAUCA
B10: chr17:64631184:64631185:-_ENSMUSG00000024083_ENSMUST00000172818|mus_mus|motif|central (ssRNA)
RNA: GGGAGUUCUACAGUCCGACGAUCUGGCUUGUUACACAGCAAUCUGCAGCAGUGUAAGUUUAAUCAGUAAGUGCCAUAACGGGUCAACAGUACAUAAAAGAAAACAAACAAACAAACCACACAAUUCACAAAUAUCCACAGUAUCAACAGAGGAUUGAGCAUCA
B11: chr16:94664741:94664742:+_ENSMUSG00000040785_ENSMUST00000117648|mus_hu|mus_mus_mus_hu_False|78_88 (ssRNA)
RNA: GGGAGUUCUACAGUCCGACGAUCUGGUACUGAUCUUGGUAGCUGAUACUCAGAAGAAAUGUUGGCCAAGGGUGUAUAUAUGCUGGUGUACUGGGGCAAACCUGGUAACACGUUUAUGUAUGCUGGCGGUGUCUGGGUGAUAUCCAACAGAGGAUUGAGCAUCA
B12: 82831620_82833072_1808_CDS_ENSMUSG00000042724_ENSMUST00000035987|mouse|control|control (ssRNA)
RNA: GGGAGUUCUACAGUCCGACGAUCCUGCACCGUGAACUUGUGCUGGAAAUCGGAGGGGAGGCUGAUGCGGUUGCCGUCCUUGAGCUUCAGCCGGCUCUUCCUGAACUUGCCCUUGCGUUUCUUCACCCGGGGCUUUUCCUGGCACAACAGAGGAUUGAGCAUCA
B13: chr3:176767854:176767855:-_ENSG00000177565_ENST00000430069|hu_hu|hu_hu_hu_mus_False|58_108 (ssRNA)
RNA: GGGAGUUCUACAGUCCGACGAUCGACAUCCUUGUUGCUGGGCACGUCCUGCCCUCCUUCCCGUAUGCAGUGUCUAAGUACUAACUGCGUAGGGCCACUCGUGCUGUUCUCACUGAGGUUCCAGAUUCUUGCCGUGGAGUCUCCCAACAGAGGAUUGAGCAUCA
B14: chr3:121489220:121489221:-_ENSG00000173226_ENST00000310864|hu_mus|motif|central (ssRNA)
RNA: GGGAGUUCUACAGUCCGACGAUCUGCCAGCUUUCACAGUACUCUCUAGGGAGGUUUGGUUCCACCGAUAAAUAACAUUCCGGAAUCGGUACUAAGCUCAUCCUUUGGAACAUCAACCUCAUCCCCUGGUUCUUCUCCAAGCUUCAACAGAGGAUUGAGCAUCA
B15: chr12:55961067:55961068:-_ENSMUSG00000062929_ENSMUST00000078124|mus_mus|FALSE|FALSE (ssRNA)
RNA: GGGAGUUCUACAGUCCGACGAUCUAAUAUCCUAGCUUAUCUAGAGAAUAAAUAAGAUACUGGAUAGGCCAAAGUGCAAAAAGAAUUUUUUUCUGAUCUCCAUUUUAUAACAUAAAUAAGCAUUUAUAAAAUUACCACUCUUUUCAACAGAGGAUUGAGCAUCA
B16: chr3:10015032:10015033:+_ENSMUSG00000027533_ENSMUST00000029046|mus_mus|mus_mus_mus_hu_True|98_98 (ssRNA)
RNA: GGGAGUUCUACAGUCCGACGAUCGUUUUUACCAUCACACGUAAUGAUACAAUCUGGCUUGGCCAUUGCGCCCAUUUUUCGCAAAGCUAUUCCCACUCCUAGCUCCUUCAUGUAUUCAUCAAAGCCUUUGCUGUCCACCAGGCGCAACAGAGGAUUGAGCAUCA
B17: chr11:99246770:99246771:-_ENSMUSG00000019761_ENSMUST00000103131|mus_hu|motif|central (ssRNA)
RNA: GGGAGUUCUACAGUCCGACGAUCAAAAGAAGAAAUACAGAAACCACAAAACACCUUGUAGACACCUUAUUUUCAAGGUCGGUUUCCAUAGACCAUCAAGACAGAAGUGUUUUCUUGGAGACUUUGUUUUCCAUGCAUCUGUAACAACAGAGGAUUGAGCAUCA
B18: chr7:151048522:151048523:+_ENSG00000013374_ENST00000566856|hu_mus|hu_hu_hu_mus_True|38_78 (ssRNA)
RNA: GGGAGUUCUACAGUCCGACGAUCCUGUUUCUUAUUUAUUACGAUCUUGAUGUAAUUUUCUUGAAGUCCGAAAGUUUCAGCUAUUUGACACCUCAGGUCUCUGCCAGUGACAUGCAAGCGGGUCUCCAACAAGCUUUUCUUAUCCAACAGAGGAUUGAGCAUCA
B19: chr2:48026839:48026840:+_ENSG00000116062_ENST00000540021|hu_hu|hu_hu_hu_mus_False|28_108 (ssRNA)
RNA: GGGAGUUCUACAGUCCGACGAUCAUAGUGUGCCACUAGCGUCCUAAAUCUGGAACAGUGGCGGUCAUCCGAAAACUGGCCGAUGAAAAACUUGCCCAGUGAAGUGUCAACAAAGCAAACACCAUACACACGAGUGUGACCAGACAACAGAGGAUUGAGCAUCA
B20: 60154132_60154765_630_CDS_ENSG00000108064_ENST00000373895|human|control|control (ssRNA)
RNA: GGGAGUUCUACAGUCCGACGAUCUUCAAUCAUUUGUUCUUCCCAAGACUUCAUUUCAUUAUGAUAACGAGUUUCGUCCUCUUUAGCAUGCUGAAUAUAUAAUUCCUUUUCAGAGUCAGACAGAUUUUUCCAGUUUUCCUUUACCAACAGAGGAUUGAGCAUCA
B21: chr11:102151369:102151370:-_ENSMUSG00000059995_ENSMUST00000137387|mus_hu|FALSE|FALSE (ssRNA)
RNA: GGGAGUUCUACAGUCCGACGAUCCGGCUAGAGGCCUGCUGAGAUCCUCCUCUCCCUCUGGCCUCCUCUCGGAGGGAGACUACGGAGGGCCAAGAAUAGAGAAGCCCAGGCCCCGGGAUUUAUUCUAACUCCUGCCAAAAUCUGCAACAGAGGAUUGAGCAUCA
B22: chr3:25648697:25648698:-_ENSG00000077097_ENST00000264331|hu_hu|FALSE|FALSE (ssRNA)
RNA: GGGAGUUCUACAGUCCGACGAUCUUUGUCAUGCAAAGAUUUUUCUGGAGUGGCUUUUGAUUUGCCUGGUGAAAAUGUAUAUUCAUCUUUAUCUAACCCAUCUGAAGGAACAAAUUCAUCUUCCCCAUCAUUUGUUAUGGGAGACAACAGAGGAUUGAGCAUCA

These binders were tested against T1, UNK ZnF1-3 (assay: nsRBNS (natural sequence RNA bind-n-seq); RBNS binding buffer (assumed for nsRBNS): 25 mM Tris pH 7.5, 150 mM KCl, 3 mM MgCl2, 0.01% Triton X-100, 500 ug/ml BSA, 20 U/ml SUPERase-In, 4 C; UNK is unkempt and MSI1 is Musashi-1; names of the RNAs are library labels; protein concentration not given here; high values mean tight binding).
For B1, the binding signal was 0.679 enrichment R. With B2 the binding signal was 1.13 enrichment R. Binder B3 has a binding signal of 1.25 enrichment R. With B4 the binding signal was 1.49 enrichment R. B5 showed a binding signal of 0.777 enrichment R. B6 showed a binding signal of 0.794 enrichment R. B7 gave a binding signal of 0.474 enrichment R. B8 showed a binding signal of 1.11 enrichment R. B9 showed a binding signal of 1.43 enrichment R. B10 gave a binding signal of 1.9 enrichment R. With B11 the binding signal was 1.11 enrichment R. In the case of B12, the binding signal is reported as 0.72 enrichment R. Work on B13 yielded a binding signal of 0.691 enrichment R. With B14 the binding signal was 1.03 enrichment R. B15 showed a binding signal of 1.18 enrichment R. In the case of B16, the binding signal is reported as 0.841 enrichment R. Binder B17 has a binding signal of 1.01 enrichment R. With B18 the binding signal was 0.772 enrichment R. In the case of B19, the binding signal is reported as 1.2 enrichment R. B20 was tested, and the binding signal was 0.579 enrichment R. B21 gave a binding signal of 0.954 enrichment R. B22 gave a binding signal of 0.875 enrichment R.
